# Measurements taken from ChEMBL document CHEMBL4888484, “Replenishing the malaria drug discovery pipeline: Screening and hit evaluation of the MMV Hit Generation Library 1 (HGL1) against asexual blood stage Plasmodium falciparum ,using a nano luciferase reporter read-out” (2022).
# The whole screen tested about 150,000 compounds, of which about 540 (0.36%) showed an effect of 50% or more. The list shows a part of the results.
# Tested on: Plasmodium falciparum
# Test: Primary screen in NF54 nanoGlo assay, in single point, at 2uM, 72h; a lower Z score goes with more inhibition
# Format: functional, Erythrocyte
# Conditions: timepoint 72 hour
Structure (SMILES),% Inhibition [%],Z score
Nc1ncc(-c2c(-c3ccccc3)ncn2C[C@@H]2C[C@@H]3C=C[C@@H]2C32CC2)cn1,7,-0.95
CN(C)C(=O)N1CCC(CNC(=O)c2ccno2)CC1,11,-1.29
CC1(C)OC(C(=O)NC2CCCCC2)C(C(=O)NC2CCCCC2)O1 (stereo not given),10,-1.33
Cn1ncc(Br)c1CC(=O)NC1CN(c2ccc(C(F)(F)F)cc2)C1,-2,0.32
CC(C)[C@H](NCc1cnn(C)c1C(F)(F)F)c1nnc2ccccn12,-9,1.12
CC(C)N1CCC(NC(c2ccccc2)C2CC2)C1=O (stereo not given),4,-0.6
COc1ccc(OC)c2c1cc(C(=O)NC[C@H]1CC[C@H](C(=O)O)CC1)n2C,2,-0.24
O=C(Cc1cnccn1)N1CC[C@@]2(CCCN(CC3CCC3)C2=O)C1,-4,0.41
CC(C)(C)C[C@H]1CN(C(=O)OC(C)(C)C)C[C@@H]1C(=O)O,6,-0.75
Cc1cc(C)c(Br)c(C(=O)N[C@H]2CCN(C(N)=O)C2)c1,-3,0.27
CCc1ccnc(CNc2ncnc(CC)c2F)c1,0,-0.03
Cc1ncc(C(=O)N(C)c2cnn(C)c2)c(C2CC2)n1,-2,0.33
CCc1nc(C)ncc1C(=O)NCc1ccc(N2CCCCC2)nc1,-2,0.26
CC1(CNC(=O)N[C@@H](c2ccccc2)[C@H](O)c2ccccc2)COC1,11,-1.87
NC(=O)[C@@H]1COCCN1CCc1cccnc1,-6,1.08
COc1cccc(CNS(=O)(=O)c2ccc(-c3ccc(=O)[nH]n3)o2)c1,-17,1.76
CCOC(=O)[C@H]1CCCN(C(=O)c2ccc(Cl)c(N3CCCC3=O)c2)C1,-5,0.69
Cc1nc(N)ncc1C(=O)N1CCC[C@H](Cn2ccnc2)C1,-7,0.92
c1ccc(C(c2ccccc2)n2nnnc2[C@@H](c2ccc3c(c2)OCO3)N2CCCCC2)cc1,-41,4.86
Cc1cc(F)ccc1S(=O)(=O)N1CCC2(CC1)CNC(=O)C2,-12,1.45
O=C(COc1ccc2c(c1)[C@H](c1ccccc1)N(Cc1ccccc1)CC2)NC1CC1,14,-1.75
O=c1c2c([nH]n1CCO)CN(c1ccc(-c3ccccc3)nn1)CC2,0,0.04
COCCCNc1cc(C#N)ccc1S(=O)(=O)N(C)CCOC,-3,0.61
Cn1cc([C@H]2CN(Cc3ccc(Cl)c(F)c3)C[C@H]2CC(=O)O)nn1,0,0
CC(C)(C)OC(=O)N1CCC(CC(=O)NC[C@@H](CO)Cc2ccccc2F)CC1,-13,1.72
O=S(=O)(c1ccc(Br)cc1Cl)N(CCO)CCCO,-16,1.78
COc1ccccc1-c1nnc2c3cc(C)ccc3nc(NCc3ccccc3)n12,-13,1.92
CC(C(=O)NCc1cn(C(C)C)c(=O)[nH]c1=O)=C1CCCC1,-8,1.04

Structure (SMILES),% Inhibition [%],Z score
O=C(c1cn2cccnc2n1)N1CC[C@@]2(CCCN(CCC3CCCCC3)C2)C1,-5,0.94
O=C(c1nnc(-c2cc(Cl)ccc2F)o1)N1CCCC1,-10,1.72
COc1cc(C)c2[nH]c3c(c(=O)c2c1)CN(CC(=O)Nc1ccc(C)c(F)c1)CC3,34,-0.74
Cn1nnnc1Cc1ccc(Br)cc1,-7,1.21
CS(=O)(=O)CCN1CCC[C@H]1c1ccc2c(c1)OCCCO2,-9,0.9
Cc1cccc(NC(=O)N2CCC3(CC2)c2nccn2CCN3C)c1C,-9,1.15
CC[C@@H](NC(C)=O)c1nc(-c2cccnn2)no1,-14,2.65
Cc1cc(C(=O)N2CCC[C@H]2c2ccsc2)c(C)s1,-8,0.8
Cc1cc(C)c(CNS(=O)(=O)CCc2ccccn2)c(C)c1,-9,0.87
Cc1ccc(Cl)cc1NC(=O)COc1ccc(N2CC(C(=O)NCC3CCCO3)CC2=O)cc1 (stereo not given),-13,1.37
Cc1nn(C)c(C)c1CC(=O)N1CCc2ccccc21,-5,0.46
COc1ccc(-c2nccn2CC[C@H]2CCOC2)cc1C(=O)O,-18,1.6
C#CCCCCNC(=O)Nc1cccc(F)c1,16,-1.88
CCN(CC)S(=O)(=O)NCc1ncc(C)c(O)c1C,-4,0.73
Cc1ccc(CCN2CCC[C@@H]2C(=O)O)cc1,3,-0.5
COc1cccc(CN(Cc2cn(C(C)C)nn2)C2CCC(O)CC2)c1 (stereo not given),-20,2.11
O=C(Nc1cccs1)N1Cc2cccnc2C1,-5,0.98
Cc1ccc([C@H]2CN(CC(=O)Nc3ccc(C)cn3)C[C@@H]2N(C)C)cc1,11,-1.05
O=C(Nc1cn[nH]c1)N(CCC(F)(F)F)C1CCCC1,-5,0.72
CCCCn1nc(C(=O)N2CCC3(CC2)NC(=O)NC3=O)ccc1=O,-14,1.26
Cc1ncsc1CNc1nnc(CC(C)(C)C)o1,37,-5.03
CCc1ccc(NC(=O)c2nnc(CN(CC)C[C@H]3CCCO3)s2)cc1,-11,1.5
Cc1nccn1-c1ncc(NC(=O)Nc2ccccc2Cl)cn1,-14,2.61
COc1ccnc(N2CCN[C@H](C(=O)N3CCCC3)C2)n1,-3,0.35
COc1cc(-c2nc(C(=O)N3CCCC3)cs2)ccc1OCc1ccc(F)c(F)c1,-16,1.88
Cc1nccnc1[C@H](C)NCc1cccc(Br)c1,-8,0.76
CCCc1ccc(-c2ccc(F)c(N3C(=O)c4c(Cl)c(Cl)c(Cl)c(Cl)c4C3=O)c2)nc1,-5,0.7
